Source: the supplement of paper PMC7826260
This is one part of the list. Cleavage of a single-stranded DNA pool by Rep nickase domains was read by sequencing (3 µM enzyme, 1 h, 37 °C); shown is the middle of each 90-letter strand. Numbers give uncut DNA relative to the enzyme-free pool, as log2; more negative means more cut, near 0 not cut, and no call is made. The scaling is to total reads, so uncut sequences can rise above 0 when many others are cut.

test system: T1, Rep nickase domain of wheat dwarf virus; assay: uncleaved DNA left, log2 of reads against the no-enzyme library (log2 ratio); higher = less cleavage (more negative = more Rep cleavage of the k-mer); sequences stand for … in CTCGTCCG…ACCGGAGA
T1 sequence (protein, residues 1-137, tag omitted): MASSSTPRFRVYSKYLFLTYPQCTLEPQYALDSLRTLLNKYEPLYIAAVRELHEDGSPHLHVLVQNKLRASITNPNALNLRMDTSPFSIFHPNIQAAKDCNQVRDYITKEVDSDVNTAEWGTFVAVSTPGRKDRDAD
Protocol: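 A pool of 90-nt single-stranded DNAs with seven random bases just before the constant AC of the nick site (name = the seven bases) was cut by 3 µM recombinant His6-SUMO-tagged Rep nickase domain (300 nM DNA, 50 mM HEPES pH 8.0, 50 mM NaCl, 1 mM MnCl2, 1 h, 37 °C, three replicates). Uncut DNA was amplified and sequenced.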

Row | Sequence | uncleaved DNA left (log2)
1 | GACGATC | 0.126
2 | CACCGAC | 0.125
3 | AATCCAG | -0.0978
4 | AGACTTC | -0.0173
5 | CCTCGCA | -0.011
6 | CGGACCC | 0.191
7 | AAGTTAG | -0.119
8 | TGGTAAG | 0.027
9 | AGATCTC | 0.173
10 | GCACCAG | -0.12
11 | AACCATC | -0.0656
12 | CTGGAAA | 0.165
13 | AAATAAT | -3.97
14 | ACTAGGA | -0.00399
15 | ATAATCG | -0.0652
16 | TTCTTCT | -0.000132
17 | TCTTTGA | 0.0295
18 | GCTAGCA | 0.0913
19 | GGGTAGG | 0.203
20 | ACACCAG | -0.12

Row | Sequence | uncleaved DNA left (log2)
21 | GTGATGT | 0.128
22 | ACACCTC | 0.0169
23 | AAGTCGA | -0.0119
24 | GGGCGTG | 0.169
25 | GTTATAC | 0.0462
26 | TCCCACC | -0.273
27 | ACGAGTA | -0.101
28 | CGCTGGG | -0.0487
29 | GTCCCGT | 0.00375
30 | GGCCTGA | 0.0467
31 | TGCTGTG | -0.0293
32 | CGGTCCC | 0.113
33 | TGCCTTC | 0.0556
34 | CAGACAT | 0.0843
35 | TCAACCG | -0.0921
36 | GTAGCGA | -0.126
37 | GGACCCT | 0.128
38 | CTTATCT | 0.0753
39 | GCGAGGG | -0.0493
40 | AAGTGAG | -0.0705
